Screen size: about 360,000 compounds; about 6,000 (1.7%) were called active. The inconclusive results got no clear call from the source; some entries with a clear call stand among them for comparison. Calls follow the shape of the dose curve; as a rule, active = well fitted cell-killing curve with a large enough effect; inconclusive = small, poorly fitted or top-dose-only effect, or effect the other way; inactive = flat fitted curve, though single readings scatter. Potencies of inconclusive entries are left out as doubtful fits.
test: qHTS for induction of synthetic lethality in tumor cells producing 2HG: qHTS for the HT-1080-NT fibrosarcoma cell line; details: HT-1080-NT fibrosarcoma viability, CellTiter-Glo ATP luminescence, 48 h; activity, negative = less viability: at 46.1 µM (top of the series) unless noted;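 also: NT is the 2HG producing partner of a matched IDH1 knockdown line; nearly all actives have a fitted effect of over 55% in size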;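 as to activity, negative = less viability: 0% = DMSO-treated cells and -100% = media-only wells without cells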
Outline: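 750 cells/well, RPMI + 5% FBS; 2 h settle, compound pin-transfer, 48 h at 37 degrees C. CellTiter-Glo 10 min RT, luminescence. Normalized to DMSO and media-only wells.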
Potency is read from the fitted curve at half-maximal effect; tags tell the direction and shape of the fitted curve.

SMILES	activity, negative = less viability	Potency
COc1cc(O)c2c(=O)c(-c3ccc(O[C@@H]4O[C@H](CO)[C@@H](O)[C@H](O)[C@H]4O)cc3)coc2c1	inactive: -24.5%	
Cc1ccccc1C(=O)N/N=C/c1ccc(OCC(=O)N2CCCCC2)cc1		inconclusive [cytotoxic, single point]
CCOc1ccc(-c2nnn(CC(=O)Nc3cccc(OC)c3)n2)cc1OCC		inconclusive [cytotoxic, single point]
CCOC(=O)C1=C(C)C(c2ccccc2)NC(=S)N1 (stereo not drawn)		inconclusive [cytotoxic, single point]
CCOC(=O)c1ccc(NC(=O)CN(c2ccc(C)cc2)S(=O)(=O)c2c(C)nn(C)c2C)cc1		inconclusive [cytotoxic, single point]
Cn1ncc2c(Nc3ccccc3Cl)nc(Nc3ccccc3Cl)nc21		inconclusive [cytotoxic, single point]
CC(C)(C)c1ccc(OCCC(=O)Nc2cccc(S(=O)(=O)NC3=NCCCCC3)c2)cc1		inconclusive [cytotoxic, single point]
COc1ccc(CNc2nc3ccccc3n2Cc2ccc(Cl)cc2)cc1OC		active: 20.6 µM
COc1ccc(NC(=O)NCCCN2CCN(c3cc(C)ccc3C)CC2)cc1		inconclusive [cytotoxic, partial curve]
O=[N+]([O-])c1cc2c(c3cccnc13)COCO2	inactive: 0.165%	
CCc1c(-c2ccc(F)cc2)ncn1Cc1cccc(-c2ccccc2)c1		inconclusive [cytotoxic, single point]
C[C@H]1CN([C@@H](C)CO)S(=O)(=O)c2ccc(C3=CCCC3)cc2O[C@@H]1CN(C)C(=O)C1CCCCC1		inconclusive [cytotoxic, single point]
CN(CC(=O)NCc1ccncc1)S(=O)(=O)c1ccc2ccccc2c1	inactive: 1.48%	
Cc1c(C(=O)OCC(=O)Nc2ccc(S(N)(=O)=O)cc2)oc2c1ccc1ccccc12		inconclusive [cytotoxic, partial curve]
O=C(CSc1nnnn1-c1ccc2c(c1)CCC2)NCc1cccs1		inconclusive [cytotoxic, single point]
O=C(Nc1cccc(S(=O)(=O)N2CCOCC2)c1)c1ccc2ccccc2n1	inactive: 0%	
CCCc1cc(=O)oc2c(C)c(OC(C)C(=O)NCCN3CCOCC3)ccc12 (stereo not drawn)	inactive: 5.19%	
CCCCC(=O)NC(c1ccc(OC)cc1)c1ccc2cccnc2c1O (stereo not drawn)		inconclusive [cytotoxic, partial curve]
Cc1ccc2c(c1)C(=O)N1c3cc(C)c(C)cc3NC(=O)C1C(=O)N2 (stereo not drawn)		inconclusive [rising, partial curve, poor fit]
COc1ccc2c(c1)[C@H]1[C@H](CO2)[C@H](c2ccccc2)[C@]2(C)C(=O)Nc3ccccc3C(=O)N12		inconclusive [cytotoxic, single point]
O=C(NC1CCS(=O)(=O)C1)C1CCCCN1S(=O)(=O)c1ccc(Cl)cc1 (stereo not drawn)	inconclusive: -32.2% [cytotoxic]	
COc1ccccc1-c1sc2cc3c(cc2c1C#Cc1cncn1C)OCO3		inconclusive [cytotoxic, single point]

SMILES	activity, negative = less viability	Potency
Cc1cc(C(=O)N2CCc3ccccc3C2)no1	inconclusive: 33.1%	
COc1ccc(C(=O)Nc2ccc3[nH]ccc3c2)cc1		active: 18.4 µM
COc1ccccc1CNC(=O)c1cc(-c2cccnc2)nc2ccccc12	inactive: -3.61%	
Cc1cc(C)cc(NC(=O)c2ccc(Cn3nc(C)c(Cl)c3C)o2)c1		inconclusive [cytotoxic, single point]
Cc1ccc(-c2[nH]ncc2/C=C(\C#N)C(=O)NC2CCCCC2)cc1		inconclusive [cytotoxic, partial curve]
O=C1CCCN2N=C(SCC(=O)Nc3cccc(F)c3)SC2=N1		inconclusive [cytotoxic, partial curve]
Nc1cccc(Nc2nc(OC(C(F)(F)F)C(F)(F)F)nc(OC(C(F)(F)F)C(F)(F)F)n2)c1		inconclusive [cytotoxic, single point]
CCOC(=O)c1c(C)[nH]c(-c2csc(N)n2)c1C		active: 6.51 µM
O=C(COc1coc(CN2CCN(c3ccccc3F)CC2)cc1=O)NCC1CCCO1 (stereo not drawn)	inactive: 9.81%	
Cc1cc(O)c(C(C)C)cc1N=Nc1ccccc1C(=O)O		inconclusive [cytotoxic, single point]
Cc1ccc(C(=O)c2cc([N+](=O)[O-])ccc2N2CCN(C)CC2)cc1		active: 10.3 µM
COc1ccccc1NC(=O)NNC(=O)c1ccc2c(c1)NC(=O)C(C)(C)O2		inconclusive [cytotoxic, single point]
COC(=O)CC1(C(=O)OC)Oc2ccc(Br)cc2C(=O)N1c1cc(Cl)c(Cl)cc1Cl (stereo not drawn)		inconclusive [cytotoxic, single point]
C[C@H]1c2cccc(O)c2C(O)=C2C(=O)[C@]3(O)C(O)=C(C(N)=O)C(=O)[C@@H](N(C)C)[C@@H]3[C@@H](O)[C@@H]21		inconclusive [cytotoxic, single point]
C/C(=N\NC(=O)c1ccc(Cn2cc(Br)cn2)o1)c1ccc(NC(=O)c2ccoc2C)cc1		inconclusive [cytotoxic, single point]
CCCNC(=O)C1(C)CCN(C(=O)/C=C/c2ccccc2)C1 (stereo not drawn)		inconclusive [rising, single point]
COCC(=O)NC1CCN(C(=O)NCc2ccccc2)CC1	inactive: -0.53%	
CC(C)Oc1ccc(-c2nc(NCC3CCCO3)c3ccccc3n2)cc1 (stereo not drawn)	inactive: -13.2%	
O=C1C(=O)N(c2cccc(Cl)c2)C(c2ccccc2[N+](=O)[O-])/C1=C(\O)c1ccccc1 (stereo not drawn)		inconclusive [cytotoxic, single point]
COc1ccc(CC(=O)Nc2nc(-c3ccc(F)c(F)c3)cs2)cc1		active: 18.4 µM
CCCC(=O)N1CCCC(c2nc(-c3cccc(OC)c3)no2)C1 (stereo not drawn)	inactive: -5.4%	

Reference: PubChem BioAssay AID686970 (National Center for Advancing Translational Sciences (NCATS), 2013)
